# Experimental data: PubChem BioAssay AID485367 (National Center for Advancing Translational Sciences (NCATS), 2010)
# About 560 (0.17%) of roughly 330,000 compounds were called active. The inconclusive results got no clear call from the source; some entries with a clear call stand among them for comparison. Calls come from the whole dose curve; as a rule, active = well fitted inhibition curve with a large enough effect; inconclusive = small, poorly fitted or top-dose-only effect, or effect the other way; inactive = flat fitted curve, though single readings scatter. No potency is given beside an inconclusive call; the fits are too rough.
# Molecular target: ATP-dependent 6-phosphofructokinase (Trypanosoma brucei brucei) (UniProt O15648)
# UniProt O15648, sequence (O15648 whole entry, looked up): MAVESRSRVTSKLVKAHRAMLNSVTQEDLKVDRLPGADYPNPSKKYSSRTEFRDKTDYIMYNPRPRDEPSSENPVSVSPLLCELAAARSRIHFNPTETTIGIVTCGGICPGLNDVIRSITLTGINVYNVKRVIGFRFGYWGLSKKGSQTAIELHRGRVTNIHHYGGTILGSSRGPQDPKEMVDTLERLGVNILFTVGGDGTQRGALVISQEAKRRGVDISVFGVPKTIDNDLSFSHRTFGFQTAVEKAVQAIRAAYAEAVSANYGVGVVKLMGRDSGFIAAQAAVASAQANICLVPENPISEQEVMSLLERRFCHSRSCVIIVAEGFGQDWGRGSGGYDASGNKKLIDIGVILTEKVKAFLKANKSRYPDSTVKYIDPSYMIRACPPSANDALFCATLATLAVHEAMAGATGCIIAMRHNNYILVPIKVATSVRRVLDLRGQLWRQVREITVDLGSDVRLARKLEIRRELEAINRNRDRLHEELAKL
# Assay: qHTS Assay to Find Inhibitors of T. brucei phosphofructokinase; note: nearly all actives have a fitted effect of over 60% in size
# Details: T. brucei PFK, ADP-Glo luminescence; series mostly up to 57.5 µM
# Procedure, shortened: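 Compounds were pin-transferred as a titration series up to 57 uM into substrate buffer (0.5 mM F6P, 0.1 mM ATP, pH 8.0), then 1.25 nM PFK was added and reactions ran 45 min before ADP-Glo detection.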
# Potency is the fitted concentration of half-maximal effect; tags give direction and shape of the fitted curve.
row,SMILES,Potency
1,CCc1nnc(NC(=O)c2nc(S(=O)(=O)Cc3cccc(C)c3)ncc2Cl)s1,inactive
2,Cc1onc(-c2c(Cl)cccc2Cl)c1C(=O)N1CCN(c2ccc(F)cc2)CC1,inactive
3,CC1=C/C(=N\OS(=O)(=O)c2ccccc2)C(C)=CC1=O,inactive
4,C=CCN1C(=O)c2ccccc2NC1c1ccc(Br)s1 (configuration not stated),inactive
5,Cc1ccc(NC(=O)CN2CCC3(O)CCCCC3C2c2ccc3c(c2)OCO3)c(C)c1 (configuration not stated),"inconclusive [falling, single point]"
6,N#CC(C#N)=Cc1cn(-c2ncc(C(F)(F)F)cc2Cl)c2ccccc12,inactive
7,O=C1NC2(CCCCC2)C(=O)N1Cc1cccc(C(F)(F)F)c1,inactive
8,c1cncc(CNc2ncnc3ccc(-c4ccco4)cc23)c1,"inconclusive [falling, single point]"
9,NS(=O)(=O)c1ccc(NC(=S)Nc2cc(Cl)c(Cl)cc2Cl)cc1,"inconclusive [falling, partial curve]"
10,Cc1ccc(CSCC(=O)N2CCN(Cc3ccc4c(c3)OCO4)CC2)cc1,"inconclusive [activator, single point]"
11,CCC(C)n1ncn(-c2ccc(N3CCN(c4ccc(O)cc4)CC3)cc2)c1=O (configuration not stated),"inconclusive [falling, single point]"
12,CCOc1ccc(CCNS(=O)(=O)c2ccc(-c3ccc(=O)[nH]n3)o2)cc1OCC,inactive
13,O=C(O)c1ccc(N2C(=O)CC(N3CCC(c4nc5ccccc5[nH]4)CC3)C2=O)cc1 (configuration not stated),"inconclusive [activator, single point]"
14,Cn1cc([N+](=O)[O-])c(C(=O)Nc2ccc(-c3nc4ccccc4o3)cc2)n1,"inconclusive [falling, full curve, poor fit]"
15,O=C(CSc1nc2nn(-c3ccccc3)c(=O)c-2c2n1CCCCC2)c1ccc(O)c(O)c1,"inconclusive [falling, full curve]"
16,CC(=O)c1cccc(-n2c(CCC(=O)O)ccc2-c2cccs2)c1,"inconclusive [activator, partial curve, poor fit]"
17,NC(=O)Cc1nc(-c2ccc([N+](=O)[O-])cc2)cs1,"inconclusive [falling, single point]"
18,COc1ccccc1NC1=C(NC(C)=O)C(=O)c2ccccc2C1=O,"inconclusive [falling, single point]"
19,N#C/C(=C\c1cccc(OCC(=O)O)c1)c1nc2ccccc2[nH]1,"inconclusive [falling, single point]"
20,NC1=NC(=O)C(CC(=O)Nc2ccc3c(c2)OCO3)S1 (configuration not stated),"inconclusive [activator, single point]"
21,CS(=O)(=O)N(CC(=O)NCC1CCCO1)c1cc(Cl)cc(Cl)c1 (configuration not stated),"inconclusive [falling, single point]"
22,O=C(COc1ccc(Cl)cc1)Nc1ccc2[nH]ncc2c1,"inconclusive [falling, partial curve]"
23,Cc1cccc(NC(=O)CNC(=O)Cn2ncc(Cl)c(Cl)c2=O)c1C,"inconclusive [falling, single point]"
24,COc1ccc2cc3c(N)nn(C(=O)C4CCC(C(C)(C)C)CC4)c3nc2c1 (configuration not stated),inactive

row,SMILES,Potency
1,COc1cccc(NC(=O)CSc2nc3c(sc4ccccc43)c(=O)n2CCN(C)C)c1,"inconclusive [falling, full curve, poor fit]"
2,CN1c2ccsc2C(O)=C(C(=S)Nc2ccc(F)c(Cl)c2)S1(=O)=O,inactive
3,CCCC(=O)OCC(=O)Nc1ccc2[nH]c(=O)[nH]c2c1,"inconclusive [falling, single point]"
4,COc1ccc(C(=O)Nc2ccc3c(c2)C(=O)N(C)C3=O)cc1OC,"inconclusive [falling, single point]"
5,Fc1ccccc1Cn1nnc2c(-n3ccnc3)ncnc21,inactive
6,CCc1ccc(CNC(=O)Cc2ccc(NC(=O)C3=C(C)OCCS3)cc2)cc1,"inconclusive [falling, single point]"
7,O=C(NC1CCCCCC1)C(=S)NCCc1ccccc1,"inconclusive [falling, partial curve, poor fit]"
8,O=C(C1=NN(c2ccccc2)C2C(=O)N(c3ccc(Cl)cc3)C(=O)C12)c1ccccc1 (configuration not stated),inactive
9,CC(C)(C)OC(=O)CNC(=O)c1[nH]cnc1C(=O)NCCCCCNC(=O)OC(C)(C)C,inactive
10,COc1cc(/C=C2\SC(N)=NC2=O)cc(Br)c1O,inactive
11,Cc1ccc(-c2nn(-c3ccccc3)cc2CN(Cc2ccccc2)C(=O)c2ccco2)o1,inactive
12,O=C(O)[C@@H](c1ccccc1)N1Cc2ccccc2C1=O,"inconclusive [falling, partial curve]"
13,O=C1OC(/C(=C\Nc2ccccc2)[N+](=O)[O-])c2ccccc21 (configuration not stated),"inconclusive [activator, partial curve]"
14,O=C(NCC(c1ccco1)N1CCc2ccccc21)C(=O)Nc1ccccc1 (configuration not stated),inactive
15,COc1cc(NS(=O)(=O)c2ccc(C)cc2C)cc(OC)c1OC,inactive
16,COc1ccc(/C=N/NC(=O)CSc2n[nH]c(=O)[nH]c2=O)cc1,"inconclusive [falling, partial curve]"
17,Cc1ccc(/C=C2/SC(=O)NC2=S)o1,inactive
18,C=CCn1c(CSc2nc3ccccc3s2)nnc1SCC(=O)NCc1ccco1,"inconclusive [falling, single point]"
19,Cc1ccc2c(c1)N(CC(=O)N1CCOCC1)C(=O)C(C)O2 (configuration not stated),inactive
20,O=C(NCc1ccc2c(c1)OCO2)Nc1ccc([N+](=O)[O-])cc1,"inconclusive [falling, single point]"
21,CCOC(=O)c1c(-c2ccc(OCC)cc2)csc1NC(=O)CCN1C(=O)c2ccccc2C1=O,inactive
22,CC(=O)c1cccc(NC(=O)CCc2nnc3ccc(NCc4ccco4)nn23)c1,"inconclusive [falling, single point]"
23,O=C(COc1ccc(Br)cc1)Nc1ccncc1,"inconclusive [falling, single point]"
